Results from PubChem BioAssay AID720708 (National Center for Advancing Translational Sciences (NCATS), 2013).
Among all 360,000 compounds or so, about 660 (0.18%) were called active. This list was built around the results that the source calls inconclusive (neither active nor inactive); the mix of calls is not that of the screen. The call rests on the fitted dose curve; in most records, active means well fitted inhibition curve with a large enough effect; inconclusive means small, poorly fitted or top-dose-only effect; inactive means no such curve, though single readings can be large or run the other way. Potencies of inconclusive entries are left out as doubtful fits.

molecular target: Rap guanine nucleotide exchange factor 4 (Homo sapiens) (UniProt Q8WZA2); assay: qHTS for Antagonist of cAMP-regulated guanine nucleotide exchange factor 2 (EPAC2): primary screen; conditions: EPAC2 GEF exchange of Rap1B-BODIPY-GDP, fluorescence; activity, negative = inhibition: at 114 µM (top of the series) unless noted; further: nearly all actives have a fitted effect of over 45% in size
Sequence of UniProt Q8WZA2 (Q8WZA2 whole entry, looked up): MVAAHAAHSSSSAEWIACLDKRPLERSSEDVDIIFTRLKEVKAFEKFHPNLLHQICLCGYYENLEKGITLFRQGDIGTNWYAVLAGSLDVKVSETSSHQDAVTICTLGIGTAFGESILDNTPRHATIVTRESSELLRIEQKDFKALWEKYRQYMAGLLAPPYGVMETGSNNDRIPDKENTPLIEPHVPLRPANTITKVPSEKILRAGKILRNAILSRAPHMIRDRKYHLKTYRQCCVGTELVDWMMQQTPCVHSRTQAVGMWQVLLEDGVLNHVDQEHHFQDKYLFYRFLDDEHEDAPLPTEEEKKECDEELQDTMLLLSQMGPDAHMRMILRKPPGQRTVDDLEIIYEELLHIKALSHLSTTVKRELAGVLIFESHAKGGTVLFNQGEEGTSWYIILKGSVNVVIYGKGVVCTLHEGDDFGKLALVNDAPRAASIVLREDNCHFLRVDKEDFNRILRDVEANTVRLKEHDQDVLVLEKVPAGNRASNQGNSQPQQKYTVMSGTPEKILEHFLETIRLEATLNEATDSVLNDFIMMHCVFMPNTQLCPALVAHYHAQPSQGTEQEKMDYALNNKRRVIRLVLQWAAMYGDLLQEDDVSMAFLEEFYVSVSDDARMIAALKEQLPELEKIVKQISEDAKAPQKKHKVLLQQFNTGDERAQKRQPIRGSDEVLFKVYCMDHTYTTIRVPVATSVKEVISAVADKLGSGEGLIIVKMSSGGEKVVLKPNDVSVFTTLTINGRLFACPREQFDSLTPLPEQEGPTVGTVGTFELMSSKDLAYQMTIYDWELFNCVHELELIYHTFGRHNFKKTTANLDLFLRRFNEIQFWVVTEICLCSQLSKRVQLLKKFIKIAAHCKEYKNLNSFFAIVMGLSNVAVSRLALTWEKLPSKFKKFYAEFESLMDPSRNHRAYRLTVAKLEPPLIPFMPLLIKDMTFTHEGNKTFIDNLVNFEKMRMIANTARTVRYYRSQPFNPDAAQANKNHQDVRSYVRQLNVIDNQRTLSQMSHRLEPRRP
On the % scale 0 is the no-effect control and ±100 the full control effect; potency means the concentration at half of the fitted maximal effect; tags describe the fitted curve by direction and shape.

| SMILES | Potency | activity, negative = inhibition |
| --- | --- | --- |
| Cc1ccc(S(=O)(=O)N2CCCN(C(=O)c3ccc(-n4cccn4)cc3)CC2)cc1 | inactive |  |
| CC(=O)Nc1ccc(NC(=O)C2CCC(N3C(=O)C4C5C=CC(C6CC56)C4C3=O)CC2)cc1 (stereo unspecified) | inactive |  |
| CCCNC(=O)C[C@H]1CC[C@@H]2[C@H](COC[C@@H](O)CN2C(=O)c2ccccn2)O1 | inactive |  |
| Cc1cc(-c2ccc(F)cc2)n2ncc(-c3ccccc3)c2n1 | inconclusive [inhibitor, single point] |  |
| O=S(=O)(c1ccc(Br)c2ccccc12)N1CCCC1 | inconclusive [inhibitor, partial curve] |  |
| CC(=O)Nc1sc(N/N=C\c2ccccc2F)nc1-c1cccs1 | inconclusive [inhibitor, single point] |  |
| CCOc1cc(CNc2ccccc2)cc(Br)c1OCC(=O)NC(C)(C)C | inconclusive [inhibitor, partial curve] |  |
| Nc1nc(O)c(N=Nc2ccc(S(N)(=O)=O)cc2)c(=O)[nH]1 | inactive |  |
| Cc1ccc([C@H]2C(C(=O)O)=CC[C@@H](c3ccc(C(C)C)cc3)N2S(=O)(=O)c2ccc(C)cc2)cc1 | inconclusive [inhibitor, single point] |  |
| COCC(C)NC(=O)c1ccc(Cl)c(Cl)c1 (stereo unspecified) | inconclusive [inhibitor, single point] |  |
| CCN(CC)c1ccc(/C=C2/C(=O)c3ccc(C(=O)O)cc3C2=O)cc1 | inconclusive [inhibitor, partial curve] |  |
| O=C(CC(c1ccccc1)c1ccccc1)Nc1ccc(C(=O)O)cc1 | inconclusive [inhibitor, partial curve] |  |
| CC/C(=N/N=C(/CC)c1ccc(O)cc1)c1ccc(O)cc1 | inconclusive [inhibitor, full curve, poor fit] |  |
| O=C(O)c1ccc(/C=N/Nc2cccc(C(F)(F)F)c2)cc1 | inconclusive [inhibitor, partial curve] |  |
| CCOC(=O)c1ccc(CNCc2ccccc2)cc1 | inactive |  |
| Cc1ccccc1-c1cc2c(c3c1ccn3C)C1CCC2O1 (stereo unspecified) | inconclusive [inhibitor, partial curve] |  |
| COc1ccc(-n2c(-c3ccc(Cl)cc3Cl)n[nH]c2=S)c(OC)c1 | inconclusive [inhibitor, partial curve] |  |
| COc1ccc(S(=O)(=O)N2CCC(C(=O)NCCC(=O)NCc3ccncc3)CC2)cc1 | inactive |  |
| COc1ccc(C(O)c2nc(-c3ccc(F)c(Cl)c3)cs2)cc1 (stereo unspecified) | inconclusive [inhibitor, partial curve] |  |
| Cc1ccn2c(CC(C)(C)C)c(-c3ccc(F)cc3)nc2c1 |  | inconclusive: -34.4% [inhibitor] |
| COc1ccc2sc(/C=C/c3ccccc3O)[n+](C)c2c1 | inactive |  |
| CCCCN(C=O)c1c(CC)nc2c(OCc3ccc(Cl)cc3)cccn12 | inconclusive [inhibitor, partial curve, poor fit] |  |
| CC(Oc1ccccc1F)c1nnc(SCC(=O)Nc2ccc(N3CCOCC3)cc2)o1 (stereo unspecified) | inactive |  |

| SMILES | Potency | activity, negative = inhibition |
| --- | --- | --- |
| O=C(CSc1nnc(CCc2ccccc2)n1-c1ccc(Cl)cc1)NCc1ccccc1 | inconclusive [inhibitor, full curve] |  |
| CCOc1ncccc1C(=O)OCCCC(=O)c1ccc(Br)cc1 | inconclusive [inhibitor, partial curve] |  |
| CCC1(c2ccccc2)SCC(c2ccccc2)=NC1=O (stereo unspecified) | inconclusive [inhibitor, partial curve] |  |
| O=C(Nc1cc(Cl)ccc1N1CCOCC1)c1ccc(N2CCCC2=O)cc1 | inactive |  |
| CC(C)c1nc2sc3c(=O)[nH]c(=S)[nH]c3c2c2c1CCCC2 | inactive |  |
| Oc1ccc2c(c1)C1CCCC1(N1CCOCC1)O2 (stereo unspecified) | inactive |  |
| CCC(CC)C(C(=O)NCc1ccccc1)N1CCN(c2cccc(C)c2C)CC1 (stereo unspecified) | inactive |  |
| S=C1NCCc2ccccc2C1c1ccccc1Cl (stereo unspecified) | inactive |  |
| Oc1c(C=Nc2ccccc2)sc(=S)n1Cc1ccccc1 | inactive |  |
| Cc1ccc(C(C)C)cc2c(C)ccc1-2 | inconclusive [inhibitor, partial curve] |  |
| Cc1cccc(C(C)C)c1NC(=O)c1cc2ccccc2o1 | inconclusive [inhibitor, full curve] |  |
| Cc1nc(-c2ccccn2)nc(N(C)c2ccccc2)c1Cl | inconclusive [inhibitor, partial curve] |  |
| CCCCCCCCCCOC(=O)Cn1c(COc2ccc(C)cc2)[n+](C)c2ccccc21 | inconclusive [inhibitor, partial curve] |  |
| COc1ccc2c(c1)C(=NNc1ccc(C(=O)O)cc1)c1cc(OC)ccc1-2 | inconclusive [inhibitor, full curve] |  |
| Cc1ccc(NC(=O)c2ccc(OC(=O)COc3ccc(Cl)cc3C)cc2)cc1 | inactive |  |
| O=C(CCCl)N1c2ccccc2C=Cc2ccccc21 | inconclusive [inhibitor, partial curve] |  |
| CCCCC[C@H](C)N1C[C@H](COCc2ccccc2)Oc2cc(N3CCC[C@H]3C(N)=O)ccc2S1(=O)=O | inconclusive [inhibitor, partial curve] |  |
| Nc1c(C(=O)N2CCCC2)sc2nc(-c3ccccc3)ccc12 | inactive |  |
| COc1ccc(C(C(=O)NC(C)(C)C)n2c(=O)c(-c3cc4ccccc4[nH]3)nc3ccccc32)cc1 (stereo unspecified) | inconclusive [inhibitor, partial curve] |  |
| c1ccc(-c2nc3nonc3nc2-c2ccccc2)cc1 | inconclusive [inhibitor, partial curve] |  |
| CN(C)c1ccc(C(=O)C(O)c2ccccc2Cl)cc1 (stereo unspecified) | inconclusive [inhibitor, partial curve] |  |
| CC(=O)NC(c1ccc(C(C)C)cc1)c1c(O)ccc2ccccc12 (stereo unspecified) | inconclusive [inhibitor, partial curve] |  |
| N#Cc1c(-c2ccccc2)nc(SCC(=O)Nc2ccc(OC(F)(F)Cl)cc2)[nH]c1=O | active: 35.5 µM |  |
